According to PubChem BioAssay AID624418 (National Center for Advancing Translational Sciences (NCATS), 2012):
Out of some 410,000 compounds screened, about 530 (0.13%) were called active. The shares of active, inactive and inconclusive entries below differ from those in the screen. Calls come from the whole dose curve; as a rule, active = well fitted inhibition curve with a large enough effect; inconclusive = small, poorly fitted or top-dose-only effect, or another doubt; inactive = no such curve, though single readings can be large or run the other way. Potencies of inconclusive entries are doubtful fits and often do not repeat.

Experiment: qHTS of GLP-1 Receptor Inverse Agonists: Cytotox Screen
Settings: HEK293 cAMP-luciferase reporter cells, luminescence, 24 h; activity change, negative = inhibition: at 38.3 µM (top of the series)
How it was run: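 Step one: seed cells (200 cells/uL, DMEM with 10% Nu serum, 1% pen-strep). Step two: 12-hour incubation at 37 deg C. Step three: pin 23 nL compound, incubate 24 hr. Step four: add luciferase reagent, read luminescence 12 min later.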
% is set by controls: 0 for no effect and ±100 for the full control effect; potency is the fitted concentration of half-maximal effect.

Row | Structure (SMILES) | Potency | activity change, negative = inhibition
1 | CC(C)(C)c1cc(Cl)ccc1OCCOCCN1CCCC1 | inconclusive: 11.2 µM [inhibitor, single point] | 
2 | CC(C)(C)c1ccc(S(=O)(=O)N2CCN(Cc3noc(CCC(=O)N4CCCCC4)n3)CC2)cc1 |  | inactive: 13.5%
3 | O=C(Nc1ccc(Cl)cc1)Nc1ccc2c(c1)N1CCN=C1S2 | inconclusive: 12.6 µM [inhibitor, single point] | 
4 | CCCCOc1ccc(C(=O)C(CN2CCOCC2)c2ccccc2)cc1 (centres undefined) | inconclusive: 12.6 µM [inhibitor, single point] | 
5 | CC1(C)CC(NC2C3CC4CC(C3)CC2C4)CC(C)(C)N1 (centres undefined) | inconclusive: 12.6 µM [inhibitor, partial curve, poor fit] | 
6 | CCC(=O)NC(c1ccco1)c1cc(Cl)c2cccnc2c1O (centres undefined) | inconclusive: 2 µM [inhibitor, partial curve, poor fit] | 
7 | COc1ccc(C(=O)n2nc(-c3ccco3)nc2NCc2cccs2)cc1OC |  | inactive: -4.34%
8 | O=C(O)c1ccc(C[n+]2c(-c3ccccc3)csc2Nc2ccccc2)cc1 |  | inactive: -10.5%
9 | Oc1ccc(N=Nc2ccc3c(c2)OCCO3)c(O)c1 | inconclusive: 12.6 µM [inhibitor, single point] | 
10 | NC(=O)CCn1c(C(=O)c2ccc(Cl)cc2)c2ccccc2[n+]1[O-] | inconclusive: 14.1 µM [inhibitor, partial curve, poor fit] | 
11 | COC(=O)c1ccc(C(NC(=O)OCc2ccccc2)/C(F)=C/[C@@H](C)C(=O)NCc2ccc(OC)c(OC)c2)cc1 (some centres undefined) | inconclusive: 28.2 µM [inhibitor, single point] | 
12 | Nc1ccc(-c2cnc3ccccc3n2)cc1 | inconclusive: 7.08 µM [inhibitor, partial curve, poor fit] | 
13 | Cc1ccc(C(=O)NC(=S)N2CCCC2)cc1 | inconclusive: 10 µM [inhibitor, partial curve, poor fit] | 
14 | S=C(NC1CCCCC1)N1CCCCC1 |  | inactive: -8.33%
15 | Oc1ccc(N=Nc2ccccc2)cc1 |  | inactive: -27%
16 | Cc1ccc(NC(=O)CSc2nnc(-c3ccco3)c(-c3ccco3)n2)cc1 | inconclusive: 8.91 µM [inhibitor, partial curve, poor fit] | 
17 | O=C(O)c1ccccc1NS(=O)(=O)c1ccc(N/N=C/c2cccc(O)c2O)c([N+](=O)[O-])c1 | inconclusive: 15.8 µM [inhibitor, partial curve, poor fit] | 
18 | Cc1ccc(NC(=S)NCc2ccc(F)cc2)cc1 | inconclusive: 28.2 µM [inhibitor, single point] | 
19 | O=C(NCCc1ccccc1)c1nnc(Cc2cccc(F)c2)o1 |  | inactive: 4.65%
